# According to the supplement of paper PMC11741623:
# The list shows a part of the results. Interaction screen of human proteins with wild-type SARS-CoV-2 proteins by split-DHFR complementation in yeast, 1 µg/mL methotrexate. Value = fitness of the pair (three or more lineages) minus that of the viral protein without a human partner, on a scale set by negative (0) and fused positive (1) controls, mean of up to three cultures; higher = more likely to interact. Active = false discovery rate below 0.05 (one-sided t-test) in at least one culture. Nearly all pairs are not hits, and differences among them are mostly noise (correlation between cultures about 0.3); most hits were seen in one culture only. Human sequences are the Swiss-Prot entries looked up by gene name; the clone may be another isoform. NSP2 values were corrected by the authors for a growth advantage. Listed are human proteins with a hit and a random twelfth of the others.
# B1: SF3B2, Q13435 (protein)
# chain: MATEHPEPPKAELQLPPPPPPGHYGAWAAQELQAKLAEIGAPIQGNREELVERLQSYTRQTGIVLNRPVLRGEDGDKAAPPPMSAQLPGIPMPPPPLGLPPLQPPPPPPPPPPGLGLGFPMAHPPNLGPPPPLRVGEPVALSEEERLKLAQQQAALLMQQEERAKQQGDHSLKEHELLEQQKRAAVLLEQERQQEIAKMGTPVPRPPQDMGQIGVRTPLGPRVAAPVGPVGPTPTVLPMGAPVPRPRGPPPPPGDENREMDDPSVGPKIPQALEKILQLKESRQEEMNSQQEEEEMETDARSSLGQSASETEEDTVSVSKKEKNRKRRNRKKKKKPQRVRGVSSESSGDREKDSTRSRGSDSPAADVEIEYVTEEPEIYEPNFIFFKRIFEAFKLTDDVKKEKEKEPEKLDKLENSAAPKKKGFEEEHKDSDDDSSDDEQEKKPEAPKLSKKKLRRMNRFTVAELKQLVARPDVVEMHDVTAQDPKLLVHLKATRNSVPVPRHWCFKRKYLQGKRGIEKPPFELPDFIKRTGIQEMREALQEKEEQKTMKSKMREKVRPKMGKIDIDYQKLHDAFFKWQTKPKLTIHGDLYYEGKEFETRLKEKKPGDLSDELRISLGMPVGPNAHKVPPPWLIAMQRYGPPPSYPNLKIPGLNSPIPESCSFGYHAGGWGKPPVDETGKPLYGDVFGTNAAEFQTKTEEEEIDRTPWGELEPSDEESSEEEEEEESDEDKPDETGFITPADSGLITPGGFSSVPAGMETPELIELRKKKIEEAMDGSETPQLFTVLPEKRTATVGGAMMGSTHIYDMSTVMSRKGPAPELQGVEVALAPEELELDPMAMTQKYEEHVREQQAQVEKEDFSDMVAEHAAKQKQKKRKAQPQDSRGGSKKYKEFKF
# B2: FMO2, Q99518 (protein)
# chain: MAKKVAVIGAGVSGLISLKCCVDEGLEPTCFERTEDIGGVWRFKENVEDGRASIYQSVVTNTSKEMSCFSDFPMPEDFPNFLHNSKLLEYFRIFAKKFDLLKYIQFQTTVLSVRKCPDFSSSGQWKVVTQSNGKEQSAVFDAVMVCSGHHILPHIPLKSFPGMERFKGQYFHSRQYKHPDGFEGKRILVIGMGNSGSDIAVELSKNAAQVFISTRHGTWVMSRISEDGYPWDSVFHTRFRSMLRNVLPRTAVKWMIEQQMNRWFNHENYGLEPQNKYIMKEPVLNDDVPSRLLCGAIKVKSTVKELTETSAIFEDGTVEENIDVIIFATGYSFSFPFLEDSLVKVENNMVSLYKYIFPAHLDKSTLACIGLIQPLGSIFPTAELQARWVTRVFKGLCSLPSERTMMMDIIKRNEKRIDLFGESQSQTLQTNYVDYLDELALEIGAKPDFCSLLFKDPKLAVRLYFGPCNSYQYRLVGPGQWEGARNAIFTQKQRILKPLKTRALKDSSNFSVSFLLKILGLLAVVVAFFCQLQWS
# B3: SLC7A13, Q8TCU3 (protein)
# chain: MDRGEKIQLKRVFGYWWGTSFLLINIIGAGIFVSPKGVLAYSCMNVGVSLCVWAGCAILAMTSTLCSAEISISFPCSGAQYYFLKRYFGSTVAFLNLWTSLFLGSGVVAGQALLLAEYSIQPFFPSCSVPKLPKKCLALAMLWIVGILTSRGVKEVTWLQIASSVLKVSILSFISLTGVVFLIRGKKENVERFQNAFDAELPDISHLIQAIFQGYFAYSGGACFTLIAGELKKPRTTIPKCIFTALPLVTVVYLLVNISYLTVLTPREILSSDAVAITWADRAFPSLAWIMPFAISTSLFSNLLISIFKSSRPIYLASQEGQLPLLFNTLNSHSSPFTAVLLLVTLGSLAIILTSLIDLINYIFFTGSLWSILLMIGILRRRYQEPNLSIPYKVFLSFPLATIVIDVGLVVIPLVKSPNVHYVYVLLLVLSGLLFYIPLIHFKIRLAWFEKMTCYLQLLFNICLPDVSEE
# B4: PTPLAD2, Q5VWC8 (protein)
# chain: MGPLALPAWLQPRYRKNAYLFIYYLIQFCGHSWIFTNMTVRFFSFGKDSMVDTFYAIGLVMRLCQSVSLLELLHIYVGIESNHLLPRFLQLTERIIILFVVITSQEEVQEKYVVCVLFVFWNLLDMVRYTYSMLSVIGISYAVLTWLSQTLWMPIYPLCVLAEAFAIYQSLPYFESFGTYSTKLPFDLSIYFPYVLKIYLMMLFIGMYFTYSHLYSERRDILGIFPIKKKKM
# Target: SARS-CoV-2 ORF8
# Assay: yeast fitness gain over the viral ORF with no human partner (scaled fitness); higher = more likely to interact
# Experimental: (§1)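 Split mouse DHFR complementation in pooled diploid yeast: human ORFeome clones carry one fragment and viral ORFs the other; barcoded lineages compete in 1 µg/mL methotrexate and fitness is read by barcode sequencing in up to three cultures.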
row,Binder,yeast fitness gain
1,B1,inactive: -0.17

# Target: SARS-CoV-2 ORF9B
# Assay: as above
# Experimental: as §1
row,Binder,yeast fitness gain
1,B1,inactive: -0.167
2,B2,inactive: -0.358
3,B3,inactive: -0.252
4,B4,inactive: -0.0914
